The record followed here is PubChem BioAssay (NCATS).

Experiment [1] is described as follows: qHTS for Inhibitors of the Functional Ribonucleoprotein Complex (vRNP) of Lassa (LASV) Arenavirus: Viability assay - alamar blue signal for LASV Primary Screen (AID 1347083; calls by dose curve; tested in HEK293 reporter line; further: nearly all actives have a fitted effect of over 80% in size). Conditions: cell viability, alamar blue fluorescence (LASV minigenome counter-screen); series mostly up to 57.5 µM.
A short description of experiment [2]: qHTS for Inhibitors of the Functional Ribonucleoprotein Complex (vRNP) of Lymphocytic Choriomeningitis Arenaviruses (LCMV): Viability assay - alamar blue signal for LCMV Primary Screen (AID 1347085; calls by dose curve; tested in HEK293 reporter line; further: nearly all actives have a fitted effect of over 80% in size). Particulars: alamar blue viability counter-screen, LCMV vRNP screen cells; series mostly up to 57.5 µM.
Experiment [3] in a line: Vero cells viability qHTS for Zika virus inhibitors (AID 1347167). Conditions: cytotoxicity counter-screen (Zika); series mostly up to 45.9 µM. In outline:
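Compounds were tested in concentration series on cells grown in DMEM containing 4% FBS. After 24 to 48 hours, cellular ATP was measured by luminescence with CellTiter Glo.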

Experiment [4] deals with Nucleoprotein (Lymphocytic choriomeningitis virus (strain Armstrong)) (UniProt P09992). In words: qHTS for Inhibitors of the Functional Ribonucleoprotein Complex (vRNP) of Lymphocytic Choriomeningitis Arenaviruses (LCMV): LCMV Primary Screen - GLuc reporter signal (AID 1347086; calls by dose curve; further: nearly all actives have a fitted effect of over 70% in size). Conditions: LCMV minigenome vRNP cell assay, Gaussia luciferase reporter; series mostly up to 57.5 µM.

Experiment [5] is described as follows: qHTS for Inhibitors of the Functional Ribonucleoprotein Complex (vRNP) of Lassa (LASV) Arenavirus: LASV Primary Screen - GLuc reporter signal (AID 1347082; calls by dose curve; tested in HEK293 reporter line; further: nearly all actives have a fitted effect of over 60% in size). Particulars: LASV minigenome vRNP, Gaussia luciferase reporter; series mostly up to 57.5 µM.

Results filed as inconclusive are left out. Unless noted, the call rests on the fitted dose curve; in most records, active means well fitted cell-killing curve with a large enough effect; inconclusive means small, poorly fitted or top-dose-only effect; inactive means flat fitted curve, though single readings scatter. More than one record can exist for a structure, and the calls need not agree. A number of entries come with more than one value. The other results are left out here. An entry can have further records. Results that share an entry are repeated measurements across runs, samples, wells, individuals or studies. Records carry a tag for their origin. Letters hold for one entry only.
Potency means the concentration at half of the fitted maximal effect.

UniProt P09992, sequence (P09992 whole entry, looked up): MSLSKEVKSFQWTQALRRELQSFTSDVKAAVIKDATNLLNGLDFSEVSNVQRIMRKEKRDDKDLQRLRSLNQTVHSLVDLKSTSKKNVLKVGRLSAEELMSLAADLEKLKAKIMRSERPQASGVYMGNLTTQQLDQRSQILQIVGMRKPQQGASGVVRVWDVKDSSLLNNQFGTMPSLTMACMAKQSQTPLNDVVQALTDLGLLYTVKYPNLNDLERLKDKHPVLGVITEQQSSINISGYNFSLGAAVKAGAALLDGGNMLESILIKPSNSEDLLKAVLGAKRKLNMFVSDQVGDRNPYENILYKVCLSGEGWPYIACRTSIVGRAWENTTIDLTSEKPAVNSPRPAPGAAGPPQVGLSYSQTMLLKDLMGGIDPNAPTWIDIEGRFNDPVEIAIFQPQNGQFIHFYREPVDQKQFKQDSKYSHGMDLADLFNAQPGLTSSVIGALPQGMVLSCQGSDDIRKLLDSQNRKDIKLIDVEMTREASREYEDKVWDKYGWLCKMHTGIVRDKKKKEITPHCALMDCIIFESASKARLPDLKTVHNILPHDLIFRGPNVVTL

Consider `O=C(N[C@H]1CN2CCC1CC2)c1ccc(Cl)cc1`, for which the Potency entry in experiment [1] was “inactive [sample A] and active: 13.7 µM [sample B]”.

As for `CC[C@@]1(O)C(=O)OCc2c1cc1n(c2=O)Cc2cc3ccccc3nc2-1`, the Potency entry in experiment [2] is “inactive [sample A] and active: 344 nM [sample B] and active: 316 nM [sample C]”.

`CC1=C(O)C(=O)C=C2C1=CC=C1[C@@]2(C)CC[C@@]2(C)[C@@H]3C[C@](C)(C(=O)O)CC[C@]3(C)CC[C@]12C`: the Potency entry in experiment [3] was “inactive [sample A] and active: 23.3 µM [sample B]”.

Consider `CC(C)c1ccc2c(c1)c(SC(C)(C)C)c(CC(C)(C)C(=O)O)n2Cc1ccc(Cl)cc1`, for which the Potency result in experiment [2] is “inactive [sample A] and active: 24.3 µM [sample B]”; in experiment [4] it was “inactive [sample A] and active: 21.7 µM [sample B]”.

In the case of `COC(=O)[C@@H](N)CCCN=C(N)N[N+](=O)[O-]`, the Potency result was “active: 38.5 µM [sample A] and inactive [sample B]” in experiment [5]; “active: 17.2 µM [sample A] and inactive [sample B]” in experiment [1]; “active: 21.7 µM [sample A] and inactive [sample B]” in experiment [2].
